The list shows a part of the results. Most values come without repeats; read them as rough.
How the values were obtained:
Assay in all cases: cell count relative to DMSO control; melanoma cells; higher = more viable cells
Conditions in all cases: library dose: low library concentration; 72 h
MZ2-MEL = test system: MZ2-MEL
MeWo = test system: MeWo
RPMI7951 = test system: RPMI7951
RVH-421 = test system: RVH-421
SkMel28 = test system: SkMel28
SkMel2 = test system: SkMel2
SkMel30 = test system: SkMel30
SkMel5 = test system: SkMel5
UACC257 = test system: UACC257
UACC62 = test system: UACC62
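Also: cell number obtained by counting DAPI-stained nuclei in high-throughput microscope images with image analysis software, screen run in 1,536-well plates.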

Nc1cccc2c1CN(C1CCC(=O)NC1=O)C2=O (stereo not given) [lenalidomide] + CC(C)(C)c1cnc(CSc2cnc(NC(=O)C3CCNCC3)s2)o1 [SNS-032] (first compound 1 µM, partner dose 0.01 µM)
cell count (MZ2-MEL): 98.2%
cell count (MeWo): 112%
cell count (RPMI7951): 97.6%
cell count (RVH-421): 83.9%
cell count (SkMel28): 79.5%
cell count (SkMel2): 80.5%
cell count (SkMel30): 118%
cell count (SkMel5): 108%
cell count (UACC257): 81%
cell count (UACC62): 91.3%

Clc1ccc(Nc2nnc(Cc3ccncc3)c3ccccc23)cc1 [vatalanib] + Cc1cc([N+](=O)[O-])ccc1NS(=O)(=O)c1cc(Cl)ccc1Cl [FH535] (first compound 2 µM, partner dose 1 µM)
cell count (MZ2-MEL): 91.4%
cell count (MeWo): 89.2%
cell count (RPMI7951): 90.2%
cell count (RVH-421): 65.4%
cell count (SkMel28): 90.8%
cell count (SkMel2): 105%
cell count (SkMel30): 89.1%
cell count (SkMel5): 76.5%
cell count (UACC257): 88.7%
cell count (UACC62): 98.6%

Clc1ccc(Nc2nnc(Cc3ccncc3)c3ccccc23)cc1 [vatalanib] + OCCn1cc(-c2cnc3nnn(Cc4ccc5ncccc5c4)c3n2)cn1 [PF04217903] (first compound 2 µM, partner dose 1 µM)
cell count (MZ2-MEL): 96.5%
cell count (MeWo): 91.7%
cell count (RPMI7951): 102%
cell count (RVH-421): 95.9%
cell count (SkMel28): 94.1%
cell count (SkMel2): 89.3%
cell count (SkMel30): 109%
cell count (SkMel5): 85.4%
cell count (UACC257): 92.7%
cell count (UACC62): 97.6%

C#Cc1cccc(Nc2ncnc3cc(OCCOC)c(OCCOC)cc23)c1 [erlotinib] + CN(NC(=O)CC(=O)NN(C)C(=S)c1ccccc1)C(=S)c1ccccc1 [STA4783] (first compound 0.8 µM, partner dose 0.006 µM)
cell count (MZ2-MEL): 102%
cell count (MeWo): 78.4%
cell count (RPMI7951): 97.1%
cell count (RVH-421): 84.7%
cell count (SkMel28): 111%
cell count (SkMel2): 107%
cell count (SkMel30): 105%
cell count (SkMel5): 97.8%
cell count (UACC257): 87.7%
cell count (UACC62): 84.3%

OCc1c[nH]c2ccccc12 [Indole-3-carbinol] + O=C(Nc1cccc(Cl)c1)Nc1ncc(CCNc2ncnc3ccsc23)s1 [SNS314] (first compound 0.8 µM, partner dose 0.0008 µM)
cell count (MZ2-MEL): 105%
cell count (MeWo): 107%
cell count (RPMI7951): 124%
cell count (RVH-421): 104%
cell count (SkMel28): 90.4%
cell count (SkMel2): 114%
cell count (SkMel30): 136%
cell count (SkMel5): 108%
cell count (UACC257): 86.9%
cell count (UACC62): 87.8%

Cn1c(Nc2ccc(C(F)(F)F)cc2)nc2cc(Oc3ccnc(-c4ncc(C(F)(F)F)[nH]4)c3)ccc21 + CN(NC(=O)CC(=O)NN(C)C(=S)c1ccccc1)C(=S)c1ccccc1 [STA4783] (first compound 0.08 µM, partner dose 0.006 µM)
cell count (MZ2-MEL): 82.8%
cell count (MeWo): 60.5%
cell count (RPMI7951): 61.4%
cell count (RVH-421): 65%
cell count (SkMel28): 58.7%
cell count (SkMel2): 78.9%
cell count (SkMel30): 53.9%
cell count (SkMel5): 63.9%
cell count (UACC257): 40.4%
cell count (UACC62): 62.8%

From the supplement of paper PMC4604168 (melanoma cell lines)
